Laboratory results from patent publication US9974865B2, “Antibody drug conjugates (ADC) that bind to FLT3 proteins” (AGENSYS, INC., priority 2015, dated 2018).

What was measured:
[1] = biological target: T1, Recombinant human FLT3-Fc / biotinylated FLT3 ligand (Homo sapiens, UniProt P36888); assay: Luminex FLT3 ligand blocking assay; type: binding; details: biotinylated FLT3 ligand 5 ng/mL, antibody 10 μg/mL, 60 minutes
T1 construct: purchased R and D Systems
Text: In one experiment, the CHv62.21 MAb of the invention was confirmed to not block FL. Briefly, Recombinant human FLT3-Fc was purchased from R and D Systems. This protein was immobilized onto the surface of activated Luminex microspheres using standard sulfo-NHS/EDC chemistry according to the procedure provided by Luminex. A His-tagged version of the protein, along with several other proteins were conjugated to Luminex microspheres, and served as controls in this procedure.
In addition, FLT3 ligand was also purchased from R and D Systems. The ligand was biotinylated using Thermo Scientific EZ-Link Sulfo-NHS-LC-Biotin, No-Weigh Formula according to the manufacturer's recommendations. After two (2) hours of reacting the protein with Sulfo-NHS-LC-Biotin, unincorporated biotin was removed by dialysis against DPBS.
The ability of FLT3 immobilized onto the surface of the microspheres to bind to its biotinylated ligand was assessed by reacting the microspheres with various concentrations of biotinylated ligand, prepared in buffer containing PBS, 2% BSA, 0.05% Tween 20, and 0.1% sodium azide, for 120 minutes at RT with gentle shaking. At the end of the incubation, the microspheres were aspirated and washed. Biotinylated FLT3 ligand bound to its immobilized receptor was detected with Streptavidin-R-Phycoerythrin (Moss, Inc.). The fluorescence associated with the microspheres was measured with the Luminex instrument.
Finally, to assess the ability of the FLT3 antibodies to potentially block ligand, mixtures were prepared containing biotinylated FLT3 ligand at 5 ng/mL, plus the various antibodies under investigation at 10 μg/mL. These mixtures were applied to the FLT3 immobilized onto the microspheres and incubated for 60 minutes. […] Biotinylated FLT3 ligand bound to its immobilized receptor was detected with Streptavidin-R-Phycoerythrin (Moss, Inc.). The fluorescence associated with the microspheres was measured with the Luminex instrument. Antibodies with the capability to block ligand were observed by reduction in MFI (median fluorescence intensity).

EOL-1 cells = assay: EOL-1 growth with human FLT3 ligand and antibody (Cell Titer Glo, 5 days); type: cell-based; details: FLT3 ligand 50, 10 or 5 ng/mL, antibody 10, 1, 0.1 μg/mL
Description: The ability of FLT3 antibodies (CHv62.21 and v62-1b37.1) to mediate the effect of human FLT3 ligand was evaluated using the human leukemia EOL-1 cell line, which endogenously expresses FLT3. Isotype control antibody (mLys-1c3.1) was also used. […] The next day, cells were treated with 50, 10 or 5 ng/mL of human FLT3 ligand (in 25 μl of complete media) and 10, 1, 0.1 and 0 μg/mL of test antibody (in 25 μl of complete media). Media alone was used as the untreated control. […] At the end of the incubation period, 100 μl of Cell Titer Glo was added to each well and incubated for 30 minutes, shaking, at room temperature.

[2] = tested on: FLT3 expressed on the surface of MOLM-13 cells; assay: FACS binding of biotinylated antibodies in the presence of human FLT3 Ligand; details: hFL from 100 ng/mL serially diluted 1:2, 4° C.
Description: In another experiment, The ability of anti-FLT3 antibodies, CHv62.21 and v62-1b37.1, to bind to FLT3 expressed on the surface of human leukemia MOLM-13 cell line was evaluated in the presence of human FLT3 Ligand (hFL). Isotype control antibody, AGS91.1-pAF, was used as a negative control.
Briefly, The MOLM-13 cells were seeded at a density of 50,000 cells per well onto round-bottom 96 well plates. The plates were washed one time with 150 μl per well of PBS. The cells were Fc blocked (20 μg/mL) at a volume of 50 μl per well in FACS buffer (PBS+2% FBS+0.1% sodium azide) to reduce non-specific binding. Cells were incubated at 4° C. for 15 minutes. Human FLT3 Ligand was added to appropriate wells at 100 ng/mL and serially diluted 1:2 across the plate for a total of 11 points. Cells were incubated for 30 minutes at 4° C. prior to adding biotinylated FLT3 antibodies. After incubation, the biotinylated anti-FLT3 antibodies and isotype control antibody were prepared in FACS buffer at 10 μg/mL and 1 μg/mL and 25 μl was added to wells and incubated for 1 hour at 4° C. Cells were washed two times with FACS buffer and Streptavidin-PE (Jackson immune) was added 100 μl per well and incubated for 1 hour at 4° C. Cells were washed two times with FACS buffer and read on the Attune Cytometer (Life technologies) and analyzed in FlowJo (Tree Star) software.

RS-4-11 cells = type: cell-based, human

B1: v62-1b37.1: FLT3 ligand blocking FLT3 Mab, heavy chain SEQ ID NO: 12, light chain SEQ ID NO: 13 (antibody, listed as Homo sapiens)
heavy: EVQLVESGGGVVRPGGSLRLSCAASGFTFDDYGMSWVRQAPGKGLEWVSGINWNGGSTGYADSVKGRFTISRDDAKNSLYLQMNSLRAEDTALYHCARDGYTYGPFDNWGQGTLVTVSS[skipping human IgG1 constant region]
light: DIQMTQSPSSLSASVGDRVTITCRASQGIRNDLGWYQQKPGKAPKRLIYAASSLQSGVPSRFSGSGSGTEFTLTISSLQPEDFATYYCLQHNSYPYTFGQGTKLEIKRTVAAPSVFIFPPSDEQLKSGTASVVCLLNNFYPREAKVQWKVDNALQSGNSQESVTEQDSKDSTYSLSSTLTLSKADYEKHKVYACEVTHQGLSSPVTKSFNRGEC
modifications: v62-1b37.1 heavy chain; v62-1b37.1 light chain
blocking of FLT3 ligand binding to FLT3 [1]: FL blocker | blocking of FLT3 ligand binding to FLT3 ([1]; listed as 1b37.1): FLT3 ligand blocker | effect on growth in the presence of FLT3 ligand (EOL-1 cells): inhibits growth at high concentrations | interference of human FLT3 Ligand with antibody binding [2]: does interfere with the binding

B2: v62-1b37.1-AGL-0129-08 (conjugate)
heavy: B1 heavy
light: B1 light
cytotoxicity (RS-4-11 cells): can induce cytotoxicity
